Results on 44 molecules are retold here after PMC4336329 (PLoS ONE, 2015).

Out of some 310,000 compounds screened, about 2,200 (0.71%) showed an effect of 50% or more. Effects have a minus sign here. The list shows a part of the results.

Sequence of human ether-à-go-go-related gene (hERG) potassium channel (Q12809 whole entry, looked up): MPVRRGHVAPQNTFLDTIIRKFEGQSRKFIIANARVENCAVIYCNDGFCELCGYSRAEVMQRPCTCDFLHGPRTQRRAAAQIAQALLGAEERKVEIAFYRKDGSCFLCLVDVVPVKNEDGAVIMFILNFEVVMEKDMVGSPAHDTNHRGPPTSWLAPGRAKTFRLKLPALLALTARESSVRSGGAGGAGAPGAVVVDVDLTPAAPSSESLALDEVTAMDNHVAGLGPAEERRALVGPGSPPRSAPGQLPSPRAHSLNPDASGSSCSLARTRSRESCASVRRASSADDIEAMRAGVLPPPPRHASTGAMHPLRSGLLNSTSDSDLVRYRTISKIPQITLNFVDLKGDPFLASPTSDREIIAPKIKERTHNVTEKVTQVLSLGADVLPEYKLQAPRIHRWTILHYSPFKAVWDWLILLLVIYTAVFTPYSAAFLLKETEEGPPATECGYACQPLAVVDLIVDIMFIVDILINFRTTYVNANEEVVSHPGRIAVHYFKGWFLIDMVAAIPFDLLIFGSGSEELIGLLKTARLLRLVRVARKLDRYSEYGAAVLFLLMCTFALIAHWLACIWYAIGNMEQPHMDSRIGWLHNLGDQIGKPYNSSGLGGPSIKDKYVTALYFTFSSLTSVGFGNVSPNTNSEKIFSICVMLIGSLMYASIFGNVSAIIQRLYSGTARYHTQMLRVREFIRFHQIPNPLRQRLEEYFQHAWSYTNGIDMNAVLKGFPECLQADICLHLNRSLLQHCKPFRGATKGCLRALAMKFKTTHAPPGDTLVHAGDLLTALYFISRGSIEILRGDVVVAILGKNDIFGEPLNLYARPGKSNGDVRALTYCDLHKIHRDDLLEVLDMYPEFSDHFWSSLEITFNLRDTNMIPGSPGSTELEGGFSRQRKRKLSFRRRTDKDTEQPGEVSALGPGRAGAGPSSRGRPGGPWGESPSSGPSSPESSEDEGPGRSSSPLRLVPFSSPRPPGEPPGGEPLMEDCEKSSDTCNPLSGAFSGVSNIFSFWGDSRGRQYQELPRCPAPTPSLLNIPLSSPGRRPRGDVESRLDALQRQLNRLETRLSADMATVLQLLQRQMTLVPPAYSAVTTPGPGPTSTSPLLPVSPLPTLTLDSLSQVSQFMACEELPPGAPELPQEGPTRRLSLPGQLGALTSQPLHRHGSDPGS

The assay has as its target human ether-à-go-go-related gene (hERG) potassium channel (human, UniProt Q12809). Kind of assay: primary screen, population patch clamp on CHO cells stably expressing hERG.
Turning to `N#CC1=C(N)Oc2n[nH]c(CSc3ccccc3)c2C12C(=O)Nc1ccccc12` (centres unmarked), the “hERG current change (%, negative = inhibition) at 1uM” value was determined as 8.6%.
To `N#CCCn1cc(C(=O)NCc2ccccc2)c(-c2ccc3c(c2)OCCO3)n1` belongs 8.32%.
`Cc1cccc(OCc2nnc(SCC(=O)Nc3nccs3)o2)c1`: the “hERG current change (%, negative = inhibition) at 1uM” value is recorded as 6.72%.
For `COc1ccc2cc3cc(C(=O)Nc4ccc5c(c4)OCO5)oc3nc2c1`, the “hERG current change (%, negative = inhibition) at 1uM” value was 3.59%.
To `CCN(CC)C(=O)CN1CCC(c2nc3cc(C)c(C)cc3[nH]2)CC1` belongs 11.1%.
The figure for `CCn1c(C)nc2cc(N)ccc21.Cl` is 7.53%; for `CCOC(=O)C1C(=O)OC(C)(C)C1C(C)C(=O)c1ccccc1` (centres unmarked) it is 23.5%.
The figure for `O=C(COC(=O)c1cn(-c2ccccc2)nc1-c1ccccc1)Nc1ncc(Cl)cc1Cl` is 3.57%; for `CC(=O)NC1C(=O)N=C(SCc2ccccc2)NC1=O` (centres unmarked) it is 9.17%; for `COc1ccc(C2C(C(C)=O)=C(O)C(=O)N2Cc2ccccc2)c(OC)c1` (centres unmarked) it is 11.2%.
For the molecule `O=C(O)CCc1nn2c3ccccc3n(CC(=O)c3ccccc3)c2nc1=O`, the “hERG current change (%, negative = inhibition) at 1uM” value is 0.268%.
To `O=C(OCCOc1cccc(Cl)c1)C1CCN(S(=O)(=O)c2ccccc2)CC1` belongs -4.12%; to `C[C@H](c1ccccc1)n1nnc(COCc2ccccc2)c1C#CCOCc1ccccc1`, 10.8%; to `O=C1CC[C@@H](C(=O)O)N1`, -3.71%.
To `CN(C)S(=O)(=O)c1ccc(S(=O)(=O)N(Cc2ccco2)Cc2ccccc2Cl)cc1` belongs 4.17%; to `S=c1[nH]nc(CCc2ccccc2)n1Cc1ccccc1`, 7.67%.
To `COCCCNc1nc2ccccc2nc1NS(=O)(=O)c1ccccc1` belongs 19.6%.
Take `Cc1c(C)n(Cc2ccccc2)c2ncnc(NCCO)c12`: the “hERG current change (%, negative = inhibition) at 1uM” value was determined as 10.6%.
To `O=C(CCNC(=O)c1ccccc1)NCCCc1ccccc1` belongs 10.6%; to `O=C(CN(C(=O)CNS(=O)(=O)c1ccccc1)C1CCCC1)NCC1CCCO1` (centres unmarked), 4.8%.
To `CCCCC(NC(=O)c1ccc(C#N)cc1)C(=O)NCCC` (centres unmarked) belongs -1.36%.
For the molecule `O=C(OCC(=O)N1CCN(c2ccccc2)CC1)c1cccc([N+](=O)[O-])c1`, the “hERG current change (%, negative = inhibition) at 1uM” value was -3%.
The figure for `O=C(O)Cn1nc(-c2ccccc2)ccc1=O` is 9.53%; for `CCOC(=O)CSc1nnc(CNC(=O)c2cc(OCC)c(OCC)c(OCC)c2)n1C` it is 0.985%.
To `COc1ccc(C(=O)Nc2ccc(O)c3ccccc23)cc1` belongs 11.8%.
On to `Cc1nonc1C1CCCN1C(=O)c1cc(COc2cccc(C(F)(F)F)c2)on1` (centres unmarked), for which the “hERG current change (%, negative = inhibition) at 1uM” value was 8.26%.
The figure for `CCOC(=O)c1cc(-c2cc3ccccc3o2)nc2c1c(=O)[nH]c(=O)n2CCOC` is 10%; for `CCN(CC)c1cc(C)c2cc(NC(=O)c3ccccc3F)ccc2n1` it is 2.87%.
Consider `CCn1cc(/C=C(\NC(=O)c2ccccc2)C(=O)NCCCN2CCOCC2)c2ccccc21`, for which the “hERG current change (%, negative = inhibition) at 1uM” value was determined as 11.9%.
In the case of `O=C1c2ccccc2C(O)N1c1ccccc1` (centres unmarked), the “hERG current change (%, negative = inhibition) at 1uM” value worked out at 14.1%.
For the molecule `CC(=O)Cn1c(CN2CCCCC2)nc2ccccc2c1=O`, the “hERG current change (%, negative = inhibition) at 1uM” value came out at 8.45%.
The figure for `Cn1c(=O)c(-c2cc(=O)[nH][nH]2)c(O)c2ccccc21` is 6.26%; for `O=C(CCN1C(=O)c2ccncc2C1=O)Nc1cc(F)ccc1F` it is 8.86%; for `COc1ccc(N2CCN(CC(=O)Nc3cc(C)cc(C)c3)CC2)cc1` it is 1.64%.
The figure for `Cc1nc(SCC(=O)NCc2ccco2)c2c(=O)n(C)c(=O)n(CC(C)C)c2n1` is 7.93%; for `Cn1nnnc1SCC(=O)Nc1ccc(Oc2ccccc2)cc1` it is -26%; for `CCCCNC(=O)C(Cc1ccccc1)NS(=O)(=O)c1ccc2c(c1)c(=O)n(C)c(=O)n2C` (centres unmarked) it is 0.673%.
Turning to `O=C(O)CCCCCNC(=O)c1ccc(C(=O)NCCCCCC(=O)O)cc1`, the “hERG current change (%, negative = inhibition) at 1uM” value amounted to 15%.
The figure for `Cc1ccc2nc(Cn3cc(C(F)(F)F)cc(Cl)c3=O)cc(=O)n2c1` is 5.76%; for `Clc1cccc(-c2nc(NCc3cccnc3)c3ccccc3n2)c1` it is 2.19%; for `COC(=O)C1=C(C)N(CCCC(=O)O)C(=O)NC1c1ccc(-c2ccccc2)cc1` (centres unmarked) it is 11.1%.
To `CCC1=C/C(=C/c2sc3ccccc3[n+]2CC)CC(C)(C)C1.[I-]` belongs 16.1%; to `O=C(O)[C@H](Cc1ccccc1)Nc1ccc([N+](=O)[O-])cn1`, 9.63%; to `O=C1/C(=C\c2c(NCCOCCO)nc3ccccn3c2=O)SC(=S)N1Cc1ccco1`, 7.5%.
